Test results: paper PMC9911399, “Two distinct binding modes provide the RNA-binding protein RbFox with extraordinary sequence specificity”
Changes are numbered by the printed parent chain; changes in the protein carry UniProt numbers. Some of the results follow.

T1: RBFOX1 RRM RbFoxmut (Fox-RRM*) (Homo sapiens, UniProt Q9NWB1 109-208, R118D;E147R;N151S;E152T)
T1 sequence: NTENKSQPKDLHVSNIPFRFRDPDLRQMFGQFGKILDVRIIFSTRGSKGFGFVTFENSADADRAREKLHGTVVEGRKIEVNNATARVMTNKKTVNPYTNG

B1: AAUAAUU (DNA:RNA)
RNA: GGGAGACCGGAAUUCAGAUUGUCCAAUAAUUUUAAAUCCCGUCGUAGCCACCA
DNA 1: CAATCTGAATTCCGGTCTCCC
DNA 2: TGGTGGCTACGACGGGATT
B2: CCUGAAU (DNA:RNA)
RNA: B1 RNA with A25C, A26C, A28G, U30A
DNA 1: CAATCTGAATTCCGGTCTCCC
DNA 2: TGGTGGCTACGACGGGATT
B3: AAUGCUU (DNA:RNA)
RNA: B1 RNA with A28G, A29C
DNA 1: CAATCTGAATTCCGGTCTCCC
DNA 2: TGGTGGCTACGACGGGATT
B4: AUAGAGA (DNA:RNA)
RNA: B1 RNA with A26U, U27A, A28G, U30G, U31A
DNA 1: CAATCTGAATTCCGGTCTCCC
DNA 2: TGGTGGCTACGACGGGATT
B5: AGGACGA (DNA:RNA)
RNA: B1 RNA with A26G, U27G, A29C, U30G, U31A
DNA 1: CAATCTGAATTCCGGTCTCCC
DNA 2: TGGTGGCTACGACGGGATT
B6: GCUCUCU (DNA:RNA)
RNA: B1 RNA with A25G, A26C, A28C, A29U, U30C
DNA 1: CAATCTGAATTCCGGTCTCCC
DNA 2: TGGTGGCTACGACGGGATT
B7: CCGCAUU (DNA:RNA)
RNA: B1 RNA with A25C, A26C, U27G, A28C
DNA 1: CAATCTGAATTCCGGTCTCCC
DNA 2: TGGTGGCTACGACGGGATT
B8: CCGGAUG (DNA:RNA)
RNA: B1 RNA with A25C, A26C, U27G, A28G, U31G
DNA 1: CAATCTGAATTCCGGTCTCCC
DNA 2: TGGTGGCTACGACGGGATT
B9: UCCUAUU (DNA:RNA)
RNA: B1 RNA with A25U, A26C, U27C, A28U
DNA 1: CAATCTGAATTCCGGTCTCCC
DNA 2: TGGTGGCTACGACGGGATT
B10: UCAAGCC (DNA:RNA)
RNA: B1 RNA with A25U, A26C, U27A, A29G, U30C, U31C
DNA 1: CAATCTGAATTCCGGTCTCCC
DNA 2: TGGTGGCTACGACGGGATT
B11: GUGUUAG (DNA:RNA)
RNA: GGGAGACCGGAAUUCAGAUUGUCCGUGUUAGUUAAAUCCCGUCGUAGCCACCA
DNA 1: CAATCTGAATTCCGGTCTCCC
DNA 2: TGGTGGCTACGACGGGATT
B12: GCUCAAG (DNA:RNA)
RNA: B11 RNA with U26C, G27U, U28C, U29A
DNA 1: CAATCTGAATTCCGGTCTCCC
DNA 2: TGGTGGCTACGACGGGATT
B13: AACGCUG (DNA:RNA)
RNA: B1 RNA with U27C, A28G, A29C, U31G
DNA 1: CAATCTGAATTCCGGTCTCCC
DNA 2: TGGTGGCTACGACGGGATT
B14: AUAGCUC (DNA:RNA)
RNA: B1 RNA with A26U, U27A, A28G, A29C, U31C
DNA 1: CAATCTGAATTCCGGTCTCCC
DNA 2: TGGTGGCTACGACGGGATT
B15: CUAGUCU (DNA:RNA)
RNA: B11 RNA with G25C, G27A, U28G, A30C, G31U
DNA 1: CAATCTGAATTCCGGTCTCCC
DNA 2: TGGTGGCTACGACGGGATT
B16: ACCUCUC (DNA:RNA)
RNA: B1 RNA with A26C, U27C, A28U, A29C, U31C
DNA 1: CAATCTGAATTCCGGTCTCCC
DNA 2: TGGTGGCTACGACGGGATT
B17: ACUGCAC (DNA:RNA)
RNA: B1 RNA with A26C, A28G, A29C, U30A, U31C
DNA 1: CAATCTGAATTCCGGTCTCCC
DNA 2: TGGTGGCTACGACGGGATT
B18: GCGACGA (DNA:RNA)
RNA: B11 RNA with U26C, U28A, U29C, A30G, G31A
DNA 1: CAATCTGAATTCCGGTCTCCC
DNA 2: TGGTGGCTACGACGGGATT
B19: AAGCCGU (DNA:RNA)
RNA: B1 RNA with U27G, A28C, A29C, U30G
DNA 1: CAATCTGAATTCCGGTCTCCC
DNA 2: TGGTGGCTACGACGGGATT
B20: CGCUACU (DNA:RNA)
RNA: B1 RNA with A25C, A26G, U27C, A28U, U30C
DNA 1: CAATCTGAATTCCGGTCTCCC
DNA 2: TGGTGGCTACGACGGGATT
B21: AUAUCGA (DNA:RNA)
RNA: B11 RNA with G25A, G27A, U29C, A30G, G31A
DNA 1: CAATCTGAATTCCGGTCTCCC
DNA 2: TGGTGGCTACGACGGGATT
B22: GUGGGUA (DNA:RNA)
RNA: B11 RNA with U28G, U29G, A30U, G31A
DNA 1: CAATCTGAATTCCGGTCTCCC
DNA 2: TGGTGGCTACGACGGGATT
B23: AAUGUAC (DNA:RNA)
RNA: B1 RNA with A28G, A29U, U30A, U31C
DNA 1: CAATCTGAATTCCGGTCTCCC
DNA 2: TGGTGGCTACGACGGGATT
B24: UUACUAC (DNA:RNA)
RNA: B11 RNA with G25U, G27A, U28C, G31C
DNA 1: CAATCTGAATTCCGGTCTCCC
DNA 2: TGGTGGCTACGACGGGATT
B25: UCGAGCG (DNA:RNA)
RNA: B11 RNA with G25U, U26C, U28A, U29G, A30C
DNA 1: CAATCTGAATTCCGGTCTCCC
DNA 2: TGGTGGCTACGACGGGATT
B26: AAAGGUA (DNA:RNA)
RNA: B1 RNA with U27A, A28G, A29G, U31A
DNA 1: CAATCTGAATTCCGGTCTCCC
DNA 2: TGGTGGCTACGACGGGATT
B27: CGCUAAG (DNA:RNA)
RNA: B11 RNA with G25C, U26G, G27C, U29A
DNA 1: CAATCTGAATTCCGGTCTCCC
DNA 2: TGGTGGCTACGACGGGATT
B28: CAUGAAC (DNA:RNA)
RNA: B1 RNA with A25C, A28G, U30A, U31C
DNA 1: CAATCTGAATTCCGGTCTCCC
DNA 2: TGGTGGCTACGACGGGATT
B29: AAGCUGG (DNA:RNA)
RNA: B11 RNA with G25A, U26A, U28C, A30G
DNA 1: CAATCTGAATTCCGGTCTCCC
DNA 2: TGGTGGCTACGACGGGATT
B30: ACGCUCU (DNA:RNA)
RNA: B1 RNA with A26C, U27G, A28C, A29U, U30C
DNA 1: CAATCTGAATTCCGGTCTCCC
DNA 2: TGGTGGCTACGACGGGATT
B31: UUACCCU (DNA:RNA)
RNA: B1 RNA with A25U, A26U, U27A, A28C, A29C, U30C
DNA 1: CAATCTGAATTCCGGTCTCCC
DNA 2: TGGTGGCTACGACGGGATT

Biological target: T1, RBFOX1 RRM RbFoxmut (Fox-RRM*)
Test: EMSA; HiTS-Eq, 1 nM pool, 10 min; buffer printed only for the single-RNA assays: 10 mM Tris pH 7.5, 150 mM NaCl, 3.4 mM EDTA, 0.001% NP-40, 30 C
Settings: tags: His6 N-terminal (pET28a); label: 5' 32P
Summary of the method: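 Relative association constants, normalised to the cognate motif, were derived by comparing read counts of each RNA species with those of the control reaction. The RNA sequenced was the free fraction, separated by 8% native PAGE after a 10 min equilibration in 50 µL of 1 nM 5′-radiolabelled RNA (7 randomized nucleotides) with increasing concentrations of purified wild-type or mutant RbFox RRM.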

| Binder | binding signal |
| --- | --- |
| B1 | 0.0519 KA relative to UGCAUGU |
| B2 | 0.0593 KA relative to UGCAUGU |
| B3 | 0.105 KA relative to UGCAUGU |
| B4 | 0.0967 KA relative to UGCAUGU |
| B5 | 0.0606 KA relative to UGCAUGU |
| B6 | 0.0785 KA relative to UGCAUGU |
| B7 | 0.106 KA relative to UGCAUGU |
| B8 | 0.218 KA relative to UGCAUGU |
| B9 | 0.101 KA relative to UGCAUGU |
| B10 | 0.0868 KA relative to UGCAUGU |
| B11 | 0.14 KA relative to UGCAUGU |
| B12 | 0.105 KA relative to UGCAUGU |
| B13 | 0.0713 KA relative to UGCAUGU |
| B14 | 0.0915 KA relative to UGCAUGU |
| B15 | 0.059 KA relative to UGCAUGU |
| B16 | 0.0427 KA relative to UGCAUGU |

| Binder | binding signal |
| --- | --- |
| B17 | 0.106 KA relative to UGCAUGU |
| B18 | 0.0697 KA relative to UGCAUGU |
| B19 | 0.126 KA relative to UGCAUGU |
| B20 | 0.0995 KA relative to UGCAUGU |
| B21 | 0.0981 KA relative to UGCAUGU |
| B22 | 0.212 KA relative to UGCAUGU |
| B23 | 0.133 KA relative to UGCAUGU |
| B24 | 0.0898 KA relative to UGCAUGU |
| B25 | 0.155 KA relative to UGCAUGU |
| B26 | 0.104 KA relative to UGCAUGU |
| B27 | 0.114 KA relative to UGCAUGU |
| B28 | 0.126 KA relative to UGCAUGU |
| B29 | 0.0882 KA relative to UGCAUGU |
| B30 | 0.0451 KA relative to UGCAUGU |
| B31 | 0.084 KA relative to UGCAUGU |
